# Measured values as given in PMC4336329 (PLoS ONE, 2015).
# Screen size: about 310,000 compounds; about 14,000 (4.5%) showed an effect of 50% or more. The effect is printed as a negative number. The list shows a part of the results.
# Biological target: human ether-à-go-go-related gene (hERG) potassium channel (human, UniProt Q12809)
# Test: primary screen, population patch clamp on CHO cells stably expressing hERG
# 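Also: peak tail current of the secondary pulse compared with the same well before compound.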
# Chain of human ether-à-go-go-related gene (hERG) potassium channel (Q12809 whole entry, looked up): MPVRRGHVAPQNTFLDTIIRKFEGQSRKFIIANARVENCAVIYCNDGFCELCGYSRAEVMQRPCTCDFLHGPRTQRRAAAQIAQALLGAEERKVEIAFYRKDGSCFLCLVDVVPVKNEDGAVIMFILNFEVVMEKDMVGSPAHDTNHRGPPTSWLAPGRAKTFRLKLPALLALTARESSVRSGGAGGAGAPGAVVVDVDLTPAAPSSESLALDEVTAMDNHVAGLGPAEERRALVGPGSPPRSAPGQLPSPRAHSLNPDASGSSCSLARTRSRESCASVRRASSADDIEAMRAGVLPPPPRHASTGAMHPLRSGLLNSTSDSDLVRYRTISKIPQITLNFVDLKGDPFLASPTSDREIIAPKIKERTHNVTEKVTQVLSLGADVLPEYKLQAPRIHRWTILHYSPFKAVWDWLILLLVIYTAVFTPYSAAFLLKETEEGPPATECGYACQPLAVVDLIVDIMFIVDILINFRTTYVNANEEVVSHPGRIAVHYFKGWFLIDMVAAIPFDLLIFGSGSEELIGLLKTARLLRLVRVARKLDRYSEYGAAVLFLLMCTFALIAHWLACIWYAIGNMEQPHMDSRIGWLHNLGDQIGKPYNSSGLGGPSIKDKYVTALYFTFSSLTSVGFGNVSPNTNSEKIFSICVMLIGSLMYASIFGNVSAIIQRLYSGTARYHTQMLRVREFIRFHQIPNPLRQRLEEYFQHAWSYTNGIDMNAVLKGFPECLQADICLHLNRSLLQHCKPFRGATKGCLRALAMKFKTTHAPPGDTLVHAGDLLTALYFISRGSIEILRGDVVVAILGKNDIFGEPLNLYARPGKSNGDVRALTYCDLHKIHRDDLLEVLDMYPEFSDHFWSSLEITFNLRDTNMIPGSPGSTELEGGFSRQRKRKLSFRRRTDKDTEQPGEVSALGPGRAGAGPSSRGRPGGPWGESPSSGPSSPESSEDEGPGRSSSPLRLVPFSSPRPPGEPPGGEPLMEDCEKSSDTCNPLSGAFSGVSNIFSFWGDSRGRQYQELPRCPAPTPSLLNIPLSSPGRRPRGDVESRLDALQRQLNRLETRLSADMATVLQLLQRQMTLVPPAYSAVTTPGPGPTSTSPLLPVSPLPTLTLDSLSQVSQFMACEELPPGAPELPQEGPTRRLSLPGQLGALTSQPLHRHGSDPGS
row,SMILES,"hERG current change (%, negative = inhibition) at 10uM"
1,COC(=O)C1=C(c2ccc(Cl)c(C(F)(F)F)c2)C[C@@H]2CC[C@H]1N2C(=O)NCC1CC1,-16.3%
2,Cc1ccc2oc(=O)c3cnn(CC(=O)N4CCCCCC4)c3c2c1,-26%
3,O=C(CCl)Nc1nc(-c2ccco2)c(-c2ccco2)s1,-10.1%
4,Cc1cc(C(=O)OCC(=O)NCc2ccc3c(c2)OCO3)c2ccccc2n1,-27.5%
5,COC(=O)c1ccc(NC(=O)c2cc[n+]([O-])cc2)cc1,10.3%
6,CCOC(=O)c1ccc(N2C(=O)C3ON(c4ccccc4)C(c4ccco4)C3C2=O)cc1 (centres unmarked),15.5%
7,Oc1ccccc1C1NN=C(c2ccccc2)S1 (centres unmarked),-15%
8,O=C(CSc1ncnc2ccccc12)Nc1cc(S(=O)(=O)N2CCCCC2)ccc1Cl,14.4%
9,Cc1ccccc1OCC(=O)NCC(=O)N/N=C/c1ccc(Br)o1,18.8%
10,COc1ccc(-c2cc3c(=O)n(CC(=O)N4CCCC4)ncn3n2)cc1,6.14%
11,Cc1cccc(N2CCN(C(=O)C3CCN(S(=O)(=O)c4c(C)noc4C)CC3)CC2C)c1 (centres unmarked),-1.76%
12,COc1ccc(-c2nn(CCC#N)cc2C(=O)Nc2ccc(C(C)=O)cc2)cc1[N+](=O)[O-],12.7%
13,COc1ccc(Cl)cc1NC(=O)c1ocnc1C,10.1%
14,O=C(NCC(=O)N(c1cccc(F)c1)C(C(=O)NC1CCCC1)c1ccncc1)c1cccs1 (centres unmarked),5.32%
15,COc1ccccc1CNC(=O)CCNC(=O)C1CCN(S(=O)(=O)c2ccccc2)CC1,-7.65%
16,CC(=O)NCCC(=O)Nc1nc(C)c(Cc2ccc3c(c2)OCO3)s1,-11.9%
17,COc1ccc(N(C(=O)c2cccnc2)S(=O)(=O)c2ccc3c(c2)n(C)c(=O)n3C)cc1,-8.9%
18,CC1(C)CC(=O)CC(=Nc2ccc(C(=O)O)cc2)C1,5.93%
19,N#Cc1ncc(C(F)(F)F)cc1Sc1ccccc1N,11.2%
20,CN=C(Nc1ccc(C)c(C)c1)SC1CC(=O)N(c2ccc(OC)cc2)C1=O (centres unmarked),9.97%
21,COc1ccc(Cl)cc1NC(=O)C(C)NC(c1ccccc1)c1ccccc1 (centres unmarked),2.46%
22,O=Cc1ccccc1Oc1nc(N2CCOCC2)nc(N2CCOCC2)n1,6.2%

row,SMILES,"hERG current change (%, negative = inhibition) at 10uM"
1,Cc1oc2ccc(O)cc2c1C(=O)c1ccccc1,5.53%
2,CC(C)(C)c1ccc(/C=C/C(=O)Nc2cccnc2)cc1,7.28%
3,Cc1ccc(C)c(NC(=O)CCc2ccc(S(=O)(=O)NC3CCCCC3)cc2)c1,19%
4,O=C(N/N=C/c1cc2c(cc1Cl)OCO2)c1ccc2c(c1)OCCO2,8.8%
5,Cc1ccc(N2CC(C(=O)OCc3nc(N)nc(Nc4ccccc4C)n3)CC2=O)cc1 (centres unmarked),-32.8%
6,Cc1ccccc1NC(=O)NCCCN1CCCC1,26.6%
7,Cc1ccn2cc(-c3cccc(NC(=O)C(C)C)c3)nc2c1,3.3%
8,COc1ccc(C2=NOC(C(=O)NCc3ccc(F)cc3)C2)cc1OC (centres unmarked),-3.78%
9,Cc1c(C(=O)N/N=C/c2cccnc2)nnn1-c1nonc1N,12.3%
10,Cc1nc(N)nc(N/N=C/c2ccccc2)n1,12.3%
11,O=C(O)c1cc(C(=O)O)c(-c2ccccc2)c(C(=O)O)c1,-12.4%
12,NNC(=O)c1ccc(Cn2cc(Br)c(N)n2)cc1,18.2%
13,O=C(NCc1ccccn1)c1cccc(S(=O)(=O)Nc2ccccc2Cl)c1,-2.4%
14,Oc1cc2c(cc1CN1CCN(c3ccc(F)cc3)CC1)OCO2,-1.5%
15,CCOCCCNC(=S)N(CCN(C)C)Cc1cc2cc3c(cc2[nH]c1=O)OCCO3,22.7%
16,CCOC(=O)c1sc(NC(=O)CNCc2cccnc2)c(C(=O)OCC)c1C,-11.4%
17,CC1=NN(c2ccc(C(=O)O)c(N)c2)C(=O)C1,20.2%
18,CC(C)Nc1nc(NC(C)C)nc(N(C)n2cnnc2)n1,5.59%
19,Cc1onc(-c2ccc(Cl)cc2Cl)c1-c1csc(N/N=C/c2ccccc2Cl)n1,4.09%
20,CCC1(c2ccccc2)NC(=O)N(CC(=O)NCc2ccc(C)cc2)C1=O (centres unmarked),4.8%
21,Cc1cccc(NC(=O)Cn2c(=O)n3nc(CCn4nc(C)cc4C)nc3c3ccccc32)c1,-23.9%
22,O=C(Cc1cccs1)N/N=C/C=C/c1ccccc1[N+](=O)[O-],-0.125%
